# From PubChem BioAssay AID588855 (National Center for Advancing Translational Sciences (NCATS), 2011)
# Screen size: about 410,000 compounds; about 5,000 (1.2%) were called active. Inconclusive results, whose numbers are uncertain, are shown with a selection of clear calls. Calls come from the whole dose curve; as a rule, active = well fitted inhibition curve with a large enough effect; inconclusive = small, poorly fitted or top-dose-only effect; inactive = no such curve, though single readings can be large or run the other way. A potency beside an inconclusive call is a rough fit, not a confirmed value.
# Assay: qHTS for Inhibitors of TGF-b; note: nearly all actives have a fitted effect of over 65% in size
# Conditions: HepG2 CAGA-GFP TGF-b/SMAD3 reporter, GFP fluorescence, 18 h, TGF-beta stimulated, 500 pg/mL final; series mostly up to 46.1 µM
# Summary of the method: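 HEPG2 CAGA-GFP reporter cells (1000/well, DMEM with 1% FBS) received compounds, then recombinant TGF-beta at 500 pg/mL final for 18 hours at 37 degrees C. Per-cell GFP summed per well was normalised to unstimulated and stimulated DMSO controls before curve fitting.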
# Potency is the fitted concentration of half-maximal effect; tags give direction and shape of the fitted curve.
row,SMILES,Potency
1,CCN1CCN(CCCNC(=O)c2ccccc2NC(=O)C2=C(C)OCCS2)CC1,inactive
2,CCOc1ccc(S(=O)(=O)NCc2ccc(Cl)cc2)c2cccnc12,"inconclusive: 6.31 µM [inhibitor, single point]"
3,S=c1[nH]nc(-c2ccccn2)n1/N=C/c1ccco1,inactive
4,CCOC(=O)Nc1cccnc1Sc1ccc(Cl)cc1,"inconclusive: 35.5 µM [inhibitor, single point]"
5,Clc1ccc(-c2nc3ccc(Cl)cn3c2Cc2cccc(Cl)c2)cc1,"inconclusive: 7.08 µM [inhibitor, partial curve]"
6,CC(C)n1cc(CN2CCC(C(=O)Nc3cccc(-c4cccc(Cl)c4)c3)CC2)cn1,"inconclusive: 22.4 µM [inhibitor, single point]"
7,CCCOc1ccc(C2c3c(-c4ccccc4O)n[nH]c3C(=O)N2CCCOCC)cc1OCC (configuration not stated),"inconclusive: 6.31 µM [inhibitor, full curve, poor fit]"
8,Cc1cc(C)cc(Cn2c3ccc(NC(=S)NCc4ccccc4F)cc3c(=O)n2C)c1,"inconclusive: 11.2 µM [inhibitor, single point]"
9,Cc1ccc(Cl)cc1N1CCN(CCCNC(=O)c2nnc(Cc3cccc(Cl)c3)o2)CC1,"inconclusive: 17.8 µM [inhibitor, partial curve, poor fit]"
10,COc1cccc(C(=O)Nc2c(C(=O)c3ccc(F)cc3)oc3ccccc23)c1,inactive
11,O=C(c1cc2ccccc2o1)N(C1CC1)C1(C(=O)Nc2ccccc2)CCCC1,"inconclusive: 11.2 µM [inhibitor, single point]"
12,CC1(C)CC(=O)C=C(N2CCOCC2)C1,"inconclusive: 3.16 µM [inhibitor, single point]"
13,Cc1oc(-c2ccc(Cl)cc2)nc1CSCC(=O)NCc1ccccc1Cl,"inconclusive: 0.112 µM [inhibitor, full curve, poor fit]"
14,O=S(=O)(CC(CN1CCCCC1)N1CCCCC1)c1ccccc1 (configuration not stated),active: 10 µM
15,COc1cc(C2c3c(oc4ccc(C)cc4c3=O)C(=O)N2Cc2ccccc2)ccc1O (configuration not stated),inactive
16,Cc1ccc2nc(-c3ccc(O)c(O)c3)cn2c1,inactive
17,Cc1cc(N2CCN(c3ccc(F)cc3)CC2)nc(-c2ccccc2)n1,inactive
18,CCN(CC)S(=O)(=O)c1ccc(Cl)c(C(=O)NC2CCN(Cc3ccccc3)CC2)c1,"inconclusive: 35.5 µM [inhibitor, single point]"
19,COc1ccc(O)c(/C=C2/SC(=S)N(Cc3ccccc3)C2=O)c1,"inconclusive: 22.4 µM [inhibitor, single point]"
20,Cc1ccccc1Nc1cc(C(=O)NCCc2ccc(Cl)cc2)c2ccccc2n1,"inconclusive: 35.5 µM [inhibitor, single point]"
21,CCc1cc(C(=O)Nc2nc(-c3ccccn3)cs2)sc1C,"inconclusive: 17.8 µM [inhibitor, single point]"
22,CCCN(CC(=O)Nc1ccc(Cl)cc1Cl)C(=O)/C=C/c1cc(OC)ccc1OC,"inconclusive: 12.6 µM [inhibitor, single point]"
23,CCCn1nc(NC(=O)c2ccco2)c2cc3cc(C)ccc3nc21,inactive

row,SMILES,Potency
1,Cc1cccc(C(=O)O[C@H]2[C@H](Cc3ccccc3)NS(=O)(=O)[C@H]3CC4C=C[C@]23O4)c1,"inconclusive: 11.2 µM [inhibitor, single point]"
2,O=C(O)C1CSC(c2coc3ccccc3c2=O)N1 (configuration not stated),"inconclusive: 6.31 µM [inhibitor, single point]"
3,COc1cc(C2NC(=O)NC(C)=C2[N+](=O)[O-])cc(OC)c1OC (configuration not stated),"inconclusive: 5.62 µM [inhibitor, single point]"
4,CC12CC3(C)CC(C)(C1)CC(C(=O)NCCc1ccc(S(N)(=O)=O)cc1)(C2)C3,inactive
5,COc1ccc(-c2cc(N)n(S(=O)(=O)c3c(F)c(F)c(F)c(F)c3F)n2)cc1OC,active: 3.98 µM
6,CC1CC(O)C(C)CN1 (configuration not stated),"inconclusive: 1.58 µM [inhibitor, partial curve, poor fit]"
7,O=C(CSc1nc(C2CC2)nc2c1cnn2-c1ccccc1)Nc1c[nH]c(=O)[nH]c1=O,"inconclusive: 35.5 µM [inhibitor, single point]"
8,Cc1ccc(NC(=O)c2cc(S(=O)(=O)N3CCOCC3)c(Br)s2)cc1,"inconclusive: 22.4 µM [inhibitor, single point]"
9,C[C@@H]1CN([C@@H](C)CO)C(=O)c2cccc(NC(=O)Nc3ccccc3)c2O[C@H]1CN(C)C(=O)Nc1cccc2ccccc12,"inconclusive: 15.8 µM [inhibitor, single point]"
10,CCC1CCCCN1CCCNC(=O)c1ccc2c(c1)N(Cc1ccc(Cl)cc1)C(=O)c1ccccc1S2(=O)=O (configuration not stated),"inconclusive: 35.5 µM [inhibitor, partial curve, poor fit]"
11,CC(=O)Nc1ccc2c(c1)[nH]c(=O)c1ccccc12,inactive
12,CCCCCOC(=O)Nc1ccc(S(=O)(=O)Nc2cccc([N+](=O)[O-])c2)cc1,"inconclusive: 35.5 µM [inhibitor, single point]"
13,COc1ccc(OC)c(/C=C/c2cc3ccccc3cn2)c1,"inconclusive: 35.5 µM [inhibitor, single point]"
14,O=c1[nH]sc2ccccc12,inactive
15,COc1ccc(C)cc1NC(=O)N1CCN(c2cc(-c3noc(C)n3)ccc2C)CC1,"inconclusive: 35.5 µM [inhibitor, single point]"
16,O=C(CN1C(=O)CSc2ccc(S(=O)(=O)N3CCCC3)cc21)NCc1ccc(Cl)cc1,inactive
17,O=[N+]([O-])c1ccccc1S(=O)(=O)c1ccccc1,inactive
18,COc1ccc(NC(=O)CN2C(=O)COc3ccc(S(=O)(=O)N4CCCCC4)cc32)cc1Cl,"inconclusive: 12.6 µM [inhibitor, partial curve, poor fit]"
19,CC(C)(C)OC(=O)N1CCC(NC(=O)c2[nH]cnc2C(=O)Nc2ccccc2)CC1,active: 12.6 µM
20,Cc1cccc(C(=O)N2CCCC(c3nc(-c4ccc(F)cc4)no3)C2)c1 (configuration not stated),"inconclusive: 35.5 µM [inhibitor, single point]"
21,O=C(NCc1ccccc1Cl)c1ccc2ccccc2n1,"inconclusive: 3.98 µM [inhibitor, single point]"
22,Oc1ccc(Cl)cc1CNCC1CCCCC1,inactive
23,O=C1CC(c2nnc(Cc3ccccc3Cl)o2)CN1c1ccccc1 (configuration not stated),inactive

row,SMILES,Potency
1,COc1ccccc1Cc1c(C(C)(C)C)nc2c3ccccc3ccn12,"inconclusive: 35.5 µM [inhibitor, single point]"
2,Cc1ccc(C)c(NC(=O)CN(C)C(=O)[C@@H](NC(=O)c2ccc(C(C)(C)C)cc2)C(C)C)c1,"inconclusive: 35.5 µM [inhibitor, single point]"
3,CCN(C(=O)COC(=O)CCCOc1ccc(Cl)cc1C)c1c(N)n(Cc2ccccc2)c(=O)[nH]c1=O,"inconclusive: 10 µM [inhibitor, partial curve]"
4,CN(C)S(=O)(=O)c1cccc(NC(=S)N2CCc3ccccc32)c1,"inconclusive: 17.8 µM [inhibitor, single point]"
5,COc1ccc(C(N)c2csc(Nc3ccc(C(=O)c4ccccc4)cc3)n2)cc1 (configuration not stated),"inconclusive: 35.5 µM [inhibitor, single point]"
6,C=C1C(=O)O[C@@H]2[C@H]3O[C@]3(C)CC/C=C(\C)CC[C@@H]12,active: 12.6 µM
7,CCCNC(=S)Nc1ccc(Nc2ccccc2)cc1,inactive
8,CC1=C(C(=O)OC(C)C)C(c2ccc(C)o2)C(C(=O)OC(C)C)=C(C)N1,"inconclusive: 35.5 µM [inhibitor, single point]"
9,C[C@H]1CN([C@@H](C)CO)C(=O)c2cc(Br)cnc2O[C@H]1CN(C)C(=O)Cc1ccccn1,inactive
10,O=C(CSc1nc2ccccc2s1)NCCCN1CCOCC1,"inconclusive: 3.55 µM [inhibitor, partial curve]"
11,O=Nc1c(O)n(Cc2cccc(C(F)(F)F)c2)c2ccccc12,"inconclusive: 35.5 µM [inhibitor, single point]"
12,O=C(CSc1nc2c([nH]c3ccccc32)c(=O)n1-c1ccccc1F)Nc1ccccc1C(F)(F)F,"inconclusive: 3.98 µM [inhibitor, partial curve, poor fit]"
13,Cc1cn([C@H]2C[C@H](O)[C@@H](/C=C/C(=O)N3CCN(Cc4ccc(F)cc4)CC3)O2)c(=O)[nH]c1=O,inactive
14,Cc1ccc(Cl)cc1N1CCN(C(=O)c2cc(S(=O)(=O)N3CCCCCC3)cn2C)CC1,"inconclusive: 11.2 µM [inhibitor, partial curve]"
15,COC(=O)[C@H](C)NC(=O)NC1CCCc2ccccc21 (some centres not stated),"inconclusive: 11.2 µM [inhibitor, partial curve]"
16,CCNC(=S)N1CCc2ccccc2C1,"inconclusive: 7.08 µM [inhibitor, full curve]"
17,Cc1cc(C(=O)COC(=O)c2ccc(O)cc2O)c(C)n1-c1ccccc1,"inconclusive: 35.5 µM [inhibitor, partial curve, poor fit]"
18,CCCc1ccc(-c2cc(NC(=O)CSc3n[nH]c(N)n3)n(-c3ccccc3)n2)cc1,"inconclusive: 35.5 µM [inhibitor, single point]"
19,COC(=O)[C@@H]1C[C@]2(OC(=O)c3ccccc3)C=CC(=O)C[C@@H]2N1C(=O)OCc1ccccc1,"inconclusive: 28.2 µM [inhibitor, single point]"
20,Fc1ccccc1OCc1nc(-c2ccc(-n3cccc3)cc2)no1,inactive
21,CN(Cc1ccc(F)cc1)S(=O)(=O)c1nnc(NC(=O)c2ccc(F)cc2)s1,"inconclusive: 14.1 µM [inhibitor, single point]"
